According to PubChem BioAssay AID1745853 (National Center for Advancing Translational Sciences (NCATS), 2022):
The other results are listed elsewhere or left out. Shown are side measurements of this screen, not its main read-out; they come without a call.

Legend:
Assay in all cases: Primary Screen for Target Class Profiling of Small Molecule Inhibitors of Methyltransferases
[1] = molecular target: Glycine N-methyltransferase (Homo sapiens) (UniProt Q14749); conditions: purified enzyme, MTase-Glo SAH luminescence; measured here: GNMT inhibition; at 40 µM; stronger effect = lower value
Source text: (§1) PI: Matthew D. Hall Ph.D. and Quinlin M. Hanson Ph.D.
(§2) National Center for Advancing Translational Sciences (NCATS)
(§3) National Institute of Health (NIH), Rockville, MD
(§4) Target class profiling (TCP) is a chemical biology approach amenable to investigating understudied biological targets. TCP is achieved by developing a generalizable assay platform and applying it to screen a curated set of compound libraries against representative members of a target class. Small molecule methyltransferases (SMMTase) are a subclass of methyltransferase that act on metabolites to modulate signaling pathways, metabolize xenobiotics, or balance the available methyl pool. We screened four curated libraries totaling 27,574 unique compounds against the SMMTases nicotinamide N-methyltransferase (NNMT), phenylethanolamine N-methyltransferase (PNMT), histamine N-methyltransferase (HNMT), glycine N-methyltransferase (GNMT), catechol O-methyltransferase (COMT), and guanidinoacetate N-methyltransferase (GAMT). The data generated by this TCP can be leveraged for informed tool molecule development. For example, in the associated publication we identified a chemotype of HNMT-selective inhibitors. Additionally, we identified a putative SMMTase-selective inhibitor with potential as a tool molecule for studying broader methyltransferase biology.
(§5) High-through put screening assays were developed at the National Center for Advancing Translational Science (NCATS) for the enzymes NNMT, PNMT, HNMT, GNMT, COMT, and GAMT. Enzymatic activity was measured as a function of SAM cofactor conversion using the MTase Glo kit (Promega) for all enzymes. All assays were performed in 1536-well format with substrates and SAM concentrations at KM values. Enzyme concentration and assay timing were optimized for 10-20% SAM conversion. Initial screening of 27,574 compounds was done as single-point assays using the highest compound concentration (40 uM). […] These compounds were replated in 11-point dose response and assayed against NNMT, PNMT, HNMT, GNMT, COMT, GAMT, and a counter-assay. The IC50 and efficacy (maximal response) values were determined for each dose-response curve. These values are also accounted for in the area under the curve (AUC) values.
(§6) PROTOCOL TABLE (as described by Inglese J, Shamu CE and Guy RK. 2007)
(§7) SEQUENCE No. (e.g., 1, 2, 3, etc.); […] (e.g., Cells, Incubation, Reagent, etc.); VALUE; DESCRIPTION.
(§8) 1; Reagent; 2 uL; SMMTase Enzyme (2x) in reaction buffer, columns 1- 48.
(§9) 2; Reagent; 1 uL; SAM (4x) in reaction buffer, columns 1-48.
(§10) 3; Controls; 23 nL; DMSO in column 4; sinefungin in DMSO (0 uM - 40 uM) in 7-point 1:2 dilution series (n = 2) in column 2.
(§11) 4; Compounds; 23 nL; Columns 5-48.
(§12) 5; Reagent; 1 uL; Substrate (4x) in reaction buffer, columns 2-48.
(§13) 6; Time; 20-30 min; Incubation.
(§14) 7; Reagent; 1 uL; MTase-Glo reagent (5X), columns 1-48.
(§15) 8; Time; 30 min; Incubation.
(§16) 9; Reagent; 5 uL; MTase-Glo Detection reagent, columns 1-48.
(§17) 10; Time; 30 min; Incubation, luminescence evolution.
(§18) 11; Detection; Luminescence; ViewLux uHTS Microplate Imager (PerkinElmer).
(§19) NOTES (numbers refer to Sequence numbers above)
(§20) 1, 2, 5. White Medium Binding Greiner 1536-well plates (Cat #789175-F, Greiner Bio-One, Monroe, NC); Reaction buffer: 50 mM Tris, pH 8.0, 3 mM MgCl2, 1 mM EDTA, 50 mM NaCl, 1 mM DTT, and 0.1 mg/mL BSA. Evaporation was prevented by covering assay plates with metal lids containing holes to allow gas diffusion.
(§21) 1. Six SMMTase were profiled: HNMT, GNMT, PNMT, COMT, NNMT, GAMT
(§22) 5. The corresponding substrate was used for each enzyme: HNMT - 5.3 uM Histamine; GNMT - >500 uM Glycine; PNMT - 16.2 uM Norephinephrine; COMT - 13.7 uM Norephinephrine; NNMT - 3.8 uM Nicotinamide; GAMT - 2.5 uM Guanidinoacetate.6, 8, 10. Room temperature
(§23) 6. Final reaction conditions: 10 nM COMT, 5 uM SAM, 15 uM norepinephrine, 50 mM Tris, pH 8.0, 3 mM MgCl2, 1 mM EDTA, 50 mM NaCl, 1 mM DTT, and 0.1 mg/mL BSA; refer to tables 2 and S1 for specific timing.
8. […]

[2] = molecular target: Guanidinoacetate N-methyltransferase (Homo sapiens) (UniProt Q14353); conditions: purified enzyme, MTase-Glo SAH luminescence; measured here: GAMT inhibition; at 40 µM; stronger effect = lower value
Source text: as §1, §2, §3, §4, §5, §6, §7, §8, §9, §10, §11, §12, §13, §14, §15, §16, §17, §18, §19, §20, §21, §22, §23
8. […]

[3] = molecular target: Histamine N-methyltransferase (Homo sapiens) (UniProt P50135); conditions: purified enzyme, MTase-Glo SAH luminescence; measured here: HNMT inhibition; at 40 µM; stronger effect = lower value
Source text: as §1, §2, §3, §4, §5, §6, §7, §8, §9, §10, §11, §12, §13, §14, §15, §16, §17, §18, §19, §20, §21, §22, §23
8. […]

[4] = molecular target: Nicotinamide N-methyltransferase (Homo sapiens) (UniProt P40261); conditions: purified enzyme, MTase-Glo SAH luminescence; measured here: NNMT inhibition; at 40 µM; stronger effect = lower value
Source text: as §1, §2, §3, §4, §5, §6, §7, §8, §9, §10, §11, §12, §13, §14, §15, §16, §17, §18, §19, §20, §21, §22, §23
8. […]

[5] = molecular target: Phenylethanolamine N-methyltransferase (Homo sapiens) (UniProt P11086); conditions: purified enzyme, MTase-Glo SAH luminescence; measured here: PNMT inhibition; at 40 µM; stronger effect = lower value
Source text: as §1, §2, §3, §4, §5, §6, §7, §8, §9, §10, §11, §12, §13, §14, §15, §16, §17, §18, §19, §20, §21, §22, §23
8. […]
% is scaled to controls: 0 for no effect and ±100 for the full control effect.

Row | Structure (SMILES) | activity change, negative = inhibition [1] [%] | activity change, negative = inhibition [2] [%] | activity change, negative = inhibition [3] [%] | activity change, negative = inhibition [4] [%] | activity change, negative = inhibition [5] [%]
1 | COCCCNC(=O)N1Cc2ccccc2-n2cccc2C1c1ccc(F)cc1 (stereo not given) | 0.04 | 0 | -1.18 | 3.64 | 2.16
2 | COc1ccc(C)cc1NC(=O)N1Cc2ccccc2-n2cccc2C1c1ccc(N(C)C)cc1 (stereo not given) | 7.75 | 0.502 | 3.35 | 1.72 | 7.18
3 | CCOC(=O)c1cccc(NC(=O)N2Cc3ccccc3-n3cccc3C2c2ccc(C)cc2)c1 (stereo not given) | -1.67 | -2.25 | -5.06 | -3.85 | -5.55
4 | Cc1[nH]c2ccc(Cl)cc2c1CCN(C)C | 2.86 | 8.87 | -51 | -9.08 | 4.33
5 | CCOc1ccc(C2c3cccn3-c3ccccc3CN2C(=O)NCCC(C)C)cc1 (stereo not given) | 2.81 | 0.538 | 7.65 | 6.12 | 10.1
6 | Cc1ccc([C@H]2CN(C(=O)CN3C(=O)CNC3=O)[C@@H]3C4CCN(CC4)[C@H]23)cc1 | -7.06 | -11.5 | -6.12 | -14.3 | 6.3
7 | Cc1ccc(C2c3cccn3-c3ccccc3CN2C(=O)Nc2ccc(F)cc2)cc1 (stereo not given) | 6.62 | -1.57 | 2.57 | -1.13 | 0.158
8 | CCOC(=O)Cc1ccc(NC(=O)N2Cc3ccccc3-n3cccc3C2c2cccc(C)c2)cc1 (stereo not given) | 1.17 | -0.904 | -2.71 | -3.53 | -4.97
9 | Cc1ccc(Cl)cc1NC(=O)N1Cc2ccccc2-n2cccc2C1c1cccs1 (stereo not given) | 3.52 | 0.204 | -0.776 | -1.41 | 4.33
10 | CC(CCc1ccc(O)cc1)O[C@@H]1O[C@H](CO[C@H]2OC[C@](O)(CO)[C@H]2O)[C@@H](O)[C@H](O)[C@H]1O (stereo not given in full) | 0 | 7.64 | 11.1 | -2.81 | 4.4
11 | CCOC(=O)CC1(NC(=O)N2Cc3ccccc3-n3cccc3C2C)CCCCC1 (stereo not given) | 9.8 | 3.89 | 4.27 | -4.99 | 1.16
12 | CN(CC[C@H](N)CC(=O)N[C@H]1C=C[C@@H](n2ccc(N)nc2=O)O[C@@H]1C(=O)O)C(=N)N | 5.99 | 6.33 | 10.5 | -4.71 | 4.36
13 | O=C(N1CCCCC1Cc1ccccc1)n1cc(-c2ccc(-c3ccccc3)cc2)nn1 (stereo not given) | 3.46 | -5.09 | 5.14 | -37.1 | -10.7
14 | Cc1cccc(NC(=O)c2ccc(C(F)(F)F)cc2C(=O)O)n1 | -0.211 | -3.19 | 1.17 | -15.2 | -2.03
15 | COc1ccccc1CC(=O)N1CCN(C2CCN(C)C2=O)CC1 (stereo not given) | -0.34 | -1.74 | 1.02 | -0.481 | 3.83
16 | CSc1ccc(C2c3cccn3-c3ccccc3CN2C(=O)NC(C)C)cc1 (stereo not given) | -5.42 | 0 | 1.48 | -5.41 | 1.06
17 | CCCNC(=O)N1Cc2ccccc2-n2cccc2C1c1ccc(N(C)C)cc1 (stereo not given) | 8.88 | 0 | 1.32 | 0.177 | 6.86
18 | CCOC(=O)CNC(=O)N1Cc2ccccc2-n2cccc2C1c1cccs1 (stereo not given) | 4.47 | 1.92 | -10.1 | -3.72 | 0.662
19 | CC1c2cccn2-c2ccccc2CN1C(=O)NCc1ccco1 (stereo not given) | 3.47 | 2.11 | -3.29 | -4.16 | 3.75
20 | CC(=O)[C@H]1CCC2C3CC[C@H]4C[C@H](O)CC[C@]4(C)C3CC[C@@]21C (stereo not given in full) | 2.69 | 9.34 | 5 | -5.54 | 6.25
21 | O=C(O)c1ccnc2cc(C(OCCN3CCCCC3)c3ccccc3Cl)[nH]c12 (stereo not given) | -6.5 | -7.83 | 6.09 | -13.9 | -1.36
22 | C=CC(C)(C)C12C=C(O)C(=O)N3/C(=C\c4cnc[nH]4)C(=O)NC31N(OC)c1ccccc12 (stereo not given) | -0.887 | -15.2 | -40.8 | -25.9 | -6.86
23 | CCC1c2cccn2-c2ccccc2CN1C(=O)Nc1cccc(C(F)(F)F)c1 (stereo not given) | -0.51 | 0.944 | -2.14 | -6.54 | -2.83
24 | Cc1cccc(NC(=O)N2Cc3ccccc3-n3cccc3C2c2ccc(Cl)cc2)c1C (stereo not given) | 0.3 | 0 | 5.96 | 8.73 | 6.19
25 | COc1cccc(CNC(=O)N2Cc3ccccc3-n3cccc3C2c2cccs2)c1 (stereo not given) | 3.7 | 1.72 | -9.45 | -10.6 | -2.14
26 | CC(C)c1cccc(C(C)C)c1O | 3.74 | 15.1 | 6.99 | -0.052 | 12.9
27 | CN(C)c1nc2c(c(N3C[C@H]4CNC[C@@]4(C(=O)O)C3)n1)CCCC2 | -1.09 | -1.71 | -0.273 | -2.64 | -18.3
28 | CCOc1ccc(C2c3cccn3-c3ccccc3CN2C(=O)Nc2ccc(C)cc2C)cc1 (stereo not given) | -2.76 | 0.153 | 4.17 | 4.8 | 6.07
29 | CCc1ccccc1NC(=O)N1Cc2ccccc2-n2cccc2C1c1ccc(OC)c(OC)c1 (stereo not given) | 13.8 | 2.46 | 8.11 | 6.59 | 9.97
30 | C[C@]12CC[C@H](O[C@@H]3O[C@H](CO)[C@@H](O)[C@H](O)[C@H]3O)CC1CC[C@@H]1C2CC[C@]2(C)[C@@H](C3=CC(=O)OC3)CC[C@]12O (stereo not given in full) | 2.76 | 0.393 | 9 | -11.8 | 5.06
